Whole data set: some 33,000 sequences, median “E-score (-0.5 to 0.5)” near -0.017, cut for the highest 2% near 0.3. The list shows a part of the results.
Each sequence was assayed against T1, Sut1 (UniProt P53032) (assay: PBM E-score (8-mer binding enrichment) (E-score (-0.5 to 0.5)); higher = stronger / more preferred TF binding; most listed sequences are background and not binding sites). Details: protein concentration: 200 nM; construct: GST-full length.
T1 sequence: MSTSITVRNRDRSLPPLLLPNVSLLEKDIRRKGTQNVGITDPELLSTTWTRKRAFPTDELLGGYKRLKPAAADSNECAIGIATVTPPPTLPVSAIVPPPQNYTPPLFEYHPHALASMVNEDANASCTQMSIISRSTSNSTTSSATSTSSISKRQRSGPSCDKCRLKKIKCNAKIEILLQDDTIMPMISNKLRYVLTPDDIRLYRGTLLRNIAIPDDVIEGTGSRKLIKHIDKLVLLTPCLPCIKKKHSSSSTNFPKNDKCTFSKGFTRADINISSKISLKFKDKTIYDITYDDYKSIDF
Method in brief: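 Yeast transcription factors carrying a GST tag, as full-length proteins or DNA-binding domains, were produced by PURExpress in vitro transcription/translation. About 100-200 nM protein was applied to universal all-10-mer Agilent arrays, double-stranded by primer extension on fresh or once-stripped slides. Bound protein was detected with fluorescent anti-GST, and scans were normalised with masliner. The Universal PBM Analysis Suite gave each ungapped eight-base word, pooled with its reverse complement, an E-score, a modified Wilcoxon-Mann-Whitney statistic.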

| Sequence | PBM E-score |
| --- | --- |
| AGTAAAAA | 0.148 |
| GCTCTGTA | -0.116 |
| ATCTCCTC | -0.0263 |
| CTACGCTC | -0.0781 |
| AGTAGGGA | -0.205 |
| CGTACGAG | -0.098 |
| CGTTTGAA | 0.233 |
| CTATGAAG | 0.0482 |
| AAGGTGGC | -0.138 |
| GCGTGAAC | -0.0671 |
| ATGCGCAT | 0.295 |
| ATCGGGCG | -0.174 |
| AATAGTAC | 0.197 |
| CGATGAGC | -0.0442 |
| CCGCAATA | 0.156 |
| CAACAAAG | 0.0963 |
| ACCCGGCA | -0.141 |
| GACGCCGC | -0.221 |
| GATACGAA | -0.00618 |
| ACAGTACG | 0.0517 |
| CAAATCGA | -0.198 |
| ATACGTTC | -0.101 |
| ACTCTATC | 0.112 |
| GGTGCTTA | -0.0924 |
| ATGATAAG | 0.153 |

| Sequence | PBM E-score |
| --- | --- |
| AATAAGGT | 0.0865 |
| ACAAGCGT | -0.0414 |
| ATCTAGGA | 0.084 |
| CAAACAGA | 0.0632 |
| ATTCCGCC | 0.214 |
| CGGCTCCA | -0.0412 |
| ACCAATTC | 0.0773 |
| CCAGTGCG | -0.161 |
| CATGTTGC | -0.125 |
| ATCTTTAG | 0.0694 |
| ACAGCGAT | -0.0437 |
| CGATGACC | -0.0493 |
| CGTCCTGC | -0.307 |
| CCGATGAC | 0.0296 |
| AGTCGCGC | 0.101 |
| CCACTCGG | 0.0102 |
| TATACGCA | 0.0114 |
| CTGATGCA | -0.115 |
| ATGAATCC | 0.025 |
| GCATTCCA | -0.198 |
| AAAACTAA | 0.353 |
| ATGGTGAA | 0.0181 |
| CGCGAAAC | -0.0638 |
| CGTACGTA | 0.0321 |
| AGCGCAGA | -0.177 |

| Sequence | PBM E-score |
| --- | --- |
| AATATCGA | 0.0619 |
| CGCATCCC | -0.321 |
| CTCATATA | 0.143 |
| GTTAAGTA | 0.144 |
| AAACTATT | 0.24 |
| GATCCGGC | 0.0532 |
| CGCCGGTA | -0.158 |
| ACGGGCCT | -0.203 |
| CACGGGAG | -0.185 |
| CAGCCGAA | -0.0991 |
| ACAAACGC | -0.0721 |
| CAATAGGA | -0.00026 |
| CGAACCCG | -0.0423 |
| ACGCCGAA | 0.087 |
| CATCAATA | 0.186 |
| CGAAACCA | 0.0133 |
| ACCGATAT | 0.151 |
| AACATTAC | 0.172 |
| CCATTCGG | 0.00649 |
| AAGAGACT | -0.0192 |
| AACAACAC | 0.173 |
| AGATATCT | -0.0624 |
| CTCGGTAA | 0.186 |
| ACTAGGGA | -0.167 |
| ACTACCAT | 0.197 |

| Sequence | PBM E-score |
| --- | --- |
| AGATGGGC | 0.0254 |
| TAGTAATA | 0.19 |
| AAGCTTAT | 0.0714 |
| CACGAATA | 0.159 |
| CAAAGTAC | 0.0285 |
| AATTAAAC | 0.329 |
| GCAAGGAA | 0.0749 |
| AGGCTTAG | 0.00184 |
| GCGTCTAC | -0.204 |
| ACCCGTAT | -0.0177 |
| AGATTCTA | 0.108 |
| ATACTACG | -0.0705 |
| AGCGGGCG | -0.295 |
| CAGCCATC | -0.263 |
| GCAGGAGA | -0.0587 |
| ACCACTTA | 0.0137 |
| CAGGTCGG | -0.193 |
| CTTATTGA | 0.13 |
| GACCCAGC | -0.331 |
| CTATCCGC | -0.0219 |
| TCGCTGAA | 0.0804 |
| CGCACCAC | 0.0864 |
| CTACTTCA | 0.038 |
| AACGTGCG | -0.0575 |
| ATAAGTGG | 0.0787 |

| Sequence | PBM E-score |
| --- | --- |
| GCGGACTA | 0.404 |
| CGAATTAG | 0.196 |
| GGGTATAC | -0.111 |
| CACCTTCG | -0.12 |
| ATGTAGGC | -0.058 |
| ATACATTG | 0.15 |
| AGGCAACA | -0.252 |
| TCGCACAA | -0.0829 |
| AGGCGGAA | 0.12 |
| GGGCGGTA | -0.0548 |
| AATTACAC | 0.181 |
| ATCGTATA | 0.212 |
| CAAGTGCA | -0.214 |
| AAACCAAC | 0.025 |
| ATTATAGG | 0.102 |
| ATGGCGGC | 0.108 |
| ACTGACCA | -0.138 |
| CAATAAGG | 0.0818 |
| AAACCTAT | 0.123 |
| GCAATTAC | 0.088 |
| TAATCAAA | 0.19 |
| CCTCTACG | -0.173 |
| GCAGATCA | -0.124 |
| CCTCCGGC | 0.106 |
| ACCAGGAT | -0.049 |

| Sequence | PBM E-score |
| --- | --- |
| TCCTGACA | -0.077 |
| CTATATGA | 0.161 |
| ACACCAAT | 0.0647 |
| CGGTGTGC | -0.144 |
| ACGGCTTG | -0.24 |
| ATTCCTAG | -0.00718 |
| GGTTGAGA | -0.0204 |
| TAAAAAAA | 0.253 |
| ACTGTACA | -0.154 |
| AGCGTGTC | -0.148 |
| CACGCCGC | -0.0908 |
| CGCCGACA | -0.0995 |
| ACTTCTAC | 0.00924 |
| TATCTGGA | 0.0128 |
| AACGTGAG | -0.0804 |
| AAGGCAGG | -0.155 |
| CTATATAA | 0.158 |
| CAGCCAAC | -0.0365 |
| CGGACCCA | 0.234 |
| AGCGGTAT | 0.0737 |
| AATATTCT | 0.221 |
| CAGAACTG | 0.0389 |
| AGGTCAAT | 0.0541 |
| GTGCATCA | 0.0602 |
| GGCAGCTA | -0.095 |

| Sequence | PBM E-score |
| --- | --- |
| AGAGCGTC | -0.0757 |
| GGCGCTAC | -0.182 |
| AAAGGCGA | -0.148 |
| CGGATCGA | -0.145 |
| ACACGGTG | -0.0462 |
| ATTCAGGC | -0.142 |
| CCAACCCA | -0.254 |
| ACGACCAT | -0.137 |
| CCACGGTC | -0.275 |
| AAGTGGCC | -0.00917 |
| ATTGCGTA | -0.00313 |
| ATAGCTAT | 0.0458 |
| CATCCGCG | -0.0456 |
| AATGACGT | 0.031 |
| AAGTACTA | 0.201 |
| TGATCCAA | 0.135 |
| ACTATACA | 0.128 |
| TAATATGA | 0.315 |
| CGAGGGTA | -0.156 |
| ATAAGGAT | 0.116 |
| CGTAATGA | -3e-05 |
| CTTGAAGA | 0.0532 |

Source: the supplement of paper PMC3334620
